In all, about 410,000 compounds went through this assay and about 6,400 (1.6%) were called active. The shares of active, inactive and inconclusive entries below differ from those in the screen. Calls come from the whole dose curve; as a rule, active = well fitted inhibition curve with a large enough effect; inconclusive = small, poorly fitted or top-dose-only effect; inactive = no such curve, though single readings can be large or run the other way. A potency beside an inconclusive call is a rough fit, not a confirmed value.
These compounds were tested against Glucagon-like peptide 1 receptor (Homo sapiens) (UniProt P43220) (assay: qHTS of GLP-1 Receptor Inverse Agonists (Inhibition Mode)). Details: HEK293 GLP-1R CRE-luciferase, luminescence, 24 h, GLP-1R form is constitutively active; activity change, negative = inhibition: at 38.3 µM (top of the series) unless noted.
Chain of UniProt P43220 (P43220 whole entry, looked up): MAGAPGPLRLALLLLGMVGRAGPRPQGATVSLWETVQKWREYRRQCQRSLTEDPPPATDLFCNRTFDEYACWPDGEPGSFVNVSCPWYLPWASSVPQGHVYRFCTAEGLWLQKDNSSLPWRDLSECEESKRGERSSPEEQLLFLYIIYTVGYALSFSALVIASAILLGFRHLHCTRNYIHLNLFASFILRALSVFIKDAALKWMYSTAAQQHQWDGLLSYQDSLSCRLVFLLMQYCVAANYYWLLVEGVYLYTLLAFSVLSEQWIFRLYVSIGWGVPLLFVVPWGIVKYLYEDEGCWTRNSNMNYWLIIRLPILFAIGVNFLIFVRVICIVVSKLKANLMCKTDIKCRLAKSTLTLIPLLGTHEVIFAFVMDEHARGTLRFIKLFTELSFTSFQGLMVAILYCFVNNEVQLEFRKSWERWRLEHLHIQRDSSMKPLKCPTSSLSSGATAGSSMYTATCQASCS
Procedure, shortened: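 Cells are plated, allowed 12 hours at 37 deg C, then treated with compounds for 24 hr before luciferase detection reagent is added and luminescence is read after 12 min at room temperature. The HEK293 line carries constitutively active GLP-1R with a cAMP-responsive reporter.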
% is set by controls: 0 for no effect and ±100 for the full control effect; potency is the fitted concentration of half-maximal effect; tags give direction and shape of the fitted curve.
Note: nearly all actives have a fitted effect of over 55% in size.

Potency, inactive:
Cc1ccc(N(C)C(=O)Cn2ncc3c([nH]c4ccccc43)c2=O)cc1C
Cc1ccc2[nH]c3c(c2c1)CCCC3C(N)=O (centres undefined)
O=C(NCCc1ccc(F)cc1)Nc1ccc2c(c1)OCO2
CCOCCCNC(=O)C(c1ccc(C)cc1)N(Cc1ccc2c(c1)OCO2)C(=O)c1ccccc1O (centres undefined)
CCc1nn(CC(=O)N2CCN(c3cccc(C)c3)C(C)C2)c(=O)c2cc3sccc3n12 (centres undefined)
Cc1cc(C)c(NC(=O)CSc2nc(=O)n(Cc3ccncc3)c3c2CCC3)c(C)c1
O=C(/C=C/[C@H]1O[C@@H](n2ccc(=O)[nH]c2=O)[C@H](O)[C@@H]1O)NCc1ccco1

Potency, inconclusive:
CCN(CC)CCNc1oc(-c2ccccc2)nc1S(=O)(=O)c1ccccc1 14.1 µM [inhibitor, partial curve, poor fit]
CC1(Cc2ccccc2Cl)C(=O)Nc2cc(-c3ccccc3Cl)ccc21 (centres undefined) 7.08 µM [inhibitor, partial curve, poor fit]
O=C(CSc1nc2c([nH]c3ccccc32)c(=O)n1-c1ccccc1)Nc1cccc(C(F)(F)F)c1 28.2 µM [inhibitor, single point]
O=C1C2CCCN2C(c2cccs2)N1c1ccc(F)cc1 (centres undefined) 28.2 µM [inhibitor, single point]
CN(C(=O)c1ccccc1C(=O)OCC(=O)c1ccc(F)c(F)c1)C1CCCCC1 12.6 µM [inhibitor, partial curve, poor fit]
C=CCN(c1ccccc1OC)S(=O)(=O)c1ccc(Cl)c(C(=O)NCc2ccco2)c1 28.2 µM [inhibitor, single point]
CCOc1ccc(N(CC(=O)Nc2ccccc2OCC)S(=O)(=O)c2c(C)noc2C)cc1 1 µM [inhibitor, full curve, poor fit]
O=C(NC1CCCCC1)c1ccc(CSc2nc3ccncc3n2Cc2cccc(F)c2)cc1 12.6 µM [inhibitor, partial curve, poor fit]
COc1cccc2c1OC1(C)CC2NC(=O)N1c1cccc(C(=O)Nc2ccc3c(c2)OCCO3)c1 (centres undefined) 28.2 µM [inhibitor, single point]
Cc1ccc(C(=O)NC(=S)Nc2ccccc2N2CCCC2)cc1[N+](=O)[O-] 2.51 µM [inhibitor, full curve]
NC(=O)c1csc(C2OC(CO)C(O)C2O)n1 (centres undefined) 28.2 µM [inhibitor, single point]
Cc1ccc(/C=C2/CNC/C(=C/c3ccc(C)cc3)C2=O)cc1 5.62 µM [inhibitor, partial curve, poor fit]
Cc1ccc(C2(C)NC(=O)N(CC(=O)Nc3ccc(-c4nc5ccc(C)cc5s4)cc3)C2=O)cc1 (centres undefined) 8.91 µM [inhibitor, partial curve, poor fit]
O=C(NC1CCCCC1)C(C1CC1)n1c(=O)c(-c2cc3ccccc3[nH]2)nc2ccccc21 (centres undefined) 11.2 µM [inhibitor, partial curve, poor fit]
COC(=O)[C@H]1[C@H]2C[C@@H]3c4[nH]c5cc(OC)ccc5c4CCN3C[C@H]2C[C@@H](OC(=O)c2cc(OC)c(OC)c(OC)c2)[C@@H]1OC 28.2 µM [inhibitor, single point]
COc1cccc(C2=CC(c3ccccc3F)n3ncc(C(=O)Nc4ccc(F)cc4)c3N2)c1 (centres undefined) 22.4 µM [inhibitor, single point]
COc1cc(SC)ccc1C(=O)Nc1ccccn1 12.6 µM [inhibitor, single point]
N/C(Cc1nc(-c2ccc(Br)cc2)cs1)=N\O 20 µM [inhibitor, partial curve, poor fit]
CC(O)(c1ccc(F)c(F)c1)c1nc(-c2ccc3ccccc3c2)cs1 (centres undefined) 25.1 µM [inhibitor, single point]
CN(C(=O)COC(=O)CCc1c[nH]c2ccccc12)C(c1ccccc1)c1ccccc1 14.1 µM [inhibitor, single point]
Cc1nn(Cc2ccc(C(=O)NC3CCCCC3)o2)c(C)c1Br 12.6 µM [inhibitor, partial curve, poor fit]
O=C(CN(C1CCCCC1)C1CCCCC1)N1CCc2ccccc2C1 28.2 µM [inhibitor, single point]
Cc1ccc(NC(=O)N2CCCC2c2cccs2)cc1 (centres undefined) 11.2 µM [inhibitor, single point]
COC(=O)C(CC(=O)c1ccc(Br)cc1)n1nc(C)cc1C (centres undefined) 3.98 µM [inhibitor, partial curve, poor fit]
CSc1ncccc1C(=O)OCC(=O)Nc1cc(C(F)(F)F)ccc1N1CCOCC1 6.31 µM [inhibitor, partial curve]
c1ccc2c(CNc3ccc(CNc4ncn[nH]4)cc3)cccc2c1 1.78 µM [inhibitor, full curve]
O=C1CC(C(F)(F)C(F)(F)C(F)(F)F)=Nc2ccccc2N1 11.2 µM [inhibitor, partial curve, poor fit]
COc1cc(C(C)=O)ccc1OCC(O)CN1CCN(c2cc(C)cc(C)c2)CC1 (centres undefined) 28.2 µM [inhibitor, single point]
OC(COCCOc1ccc(Br)cc1)CN1CCN(Cc2ccccc2)CC1 (centres undefined) 11.2 µM [inhibitor, partial curve, poor fit]
CC(=O)c1cccc(-c2ccnc3c2CC(C(=O)Nc2ccc(Cl)c(C(F)(F)F)c2)O3)c1 (centres undefined) 28.2 µM [inhibitor, single point]

Potency, active:
CCc1ccc(CNC(=O)c2ccc3c(c2)c(C)c(C)n3Cc2ccccc2)cc1 10 µM

Activity change, negative = inhibition, inconclusive:
CCN1CCN(CC(=O)Nc2ccc(OC(F)(F)F)cc2)CC1 -51.2% [inhibitor]

From PubChem BioAssay AID624417 (National Center for Advancing Translational Sciences (NCATS), 2012)
